In PubChem BioAssay AID2147 (National Center for Advancing Translational Sciences (NCATS), 2009):
The whole screen tested about 230,000 compounds, of which about 3,600 (1.6%) were called active. Inconclusive means that the source gave no clear call. Such entries were picked first, then a sample of the others. Calls follow the shape of the dose curve; as a rule, active = well fitted inhibition curve with a large enough effect (not every such curve was filed as active); inconclusive = small, poorly fitted or top-dose-only effect, or another doubt; inactive = no such curve, though single readings can be large or run the other way. Where the call is inconclusive, the potency comes from a doubtful curve fit. The source holds several records for some structures; these can differ, active in one and inactive in another.

Target: Lysine-specific demethylase 4E (Homo sapiens) (UniProt B2RXH2)
Test: qHTS Assay for Inhibitors of Human Jumonji Domain Containing 2E (JMJD2E)
Conditions: JMJD2E catalytic domain, FDH-coupled NADH fluorescence (FDH is formaldehyde dehydrogenase); series mostly up to 57.1 µM; activity change, negative = inhibition: at the top concentration
Also: nearly all actives have a fitted effect of over 50% in size.
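For activity change, negative = inhibition in this document: 0% = wells with enzyme and -100% = buffer wells without enzyme.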
Potency is read from the fitted curve at half-maximal effect; tags tell the direction and shape of the fitted curve.

UniProt B2RXH2, sequence (B2RXH2 whole entry, looked up, the tested form may be a part): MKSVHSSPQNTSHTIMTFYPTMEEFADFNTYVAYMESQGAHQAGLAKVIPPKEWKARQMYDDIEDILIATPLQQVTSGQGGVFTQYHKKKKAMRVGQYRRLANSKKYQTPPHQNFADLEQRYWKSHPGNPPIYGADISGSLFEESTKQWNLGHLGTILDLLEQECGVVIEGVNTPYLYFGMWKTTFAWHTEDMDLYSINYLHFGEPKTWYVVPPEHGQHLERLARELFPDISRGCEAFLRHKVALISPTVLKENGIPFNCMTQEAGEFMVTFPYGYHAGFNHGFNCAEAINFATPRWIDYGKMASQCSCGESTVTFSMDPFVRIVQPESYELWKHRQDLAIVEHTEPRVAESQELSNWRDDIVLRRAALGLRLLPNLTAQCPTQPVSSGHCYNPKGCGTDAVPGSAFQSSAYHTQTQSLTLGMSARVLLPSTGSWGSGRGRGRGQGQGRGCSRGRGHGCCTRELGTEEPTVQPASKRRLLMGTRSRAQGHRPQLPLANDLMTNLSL

| Compound | Potency | activity change, negative = inhibition |
| --- | --- | --- |
| CCCCNC(=O)c1ccc(/C=C2\Oc3ccccc3N(C)C2=O)cc1 | inconclusive: 3.16 µM [inhibitor, partial curve] |  |
| CCCCNC(=S)Nc1ccccc1F |  | inactive: 3.34% |
| CC1(C)Cc2c(C#N)c(OCC(=O)c3ccccc3)nc(-c3ccoc3)c2CO1 |  | inactive: 2.79% |
| Cc1cccc(NC(=S)NNC(=O)c2csc3c2CCCC3)c1 |  | inactive: -6.42% |
| COc1ccc(CNC(=O)CCSCc2cccc(Cl)c2)c(OC)c1 |  | inactive: 4.14% |
| O=C(CSc1ncnc2c1oc1ccccc12)c1cccs1 |  | inactive: 0.602% |
| Cc1nc(SCC(=O)NCCc2ccccc2)c2oc3ccccc3c2n1 |  | inactive: -0.992% |
| CC1(C)Oc2ccc(/C=C/C(=O)N3CCOCC3)c(O)c2C(N2CCOCC2)C1O (configuration not stated) | inconclusive: 7.08 µM [inhibitor, partial curve] |  |
| C/C(CCc1ccco1)=N\NC(=O)CNc1cccc2ccccc12 | inconclusive: 22.4 µM [inhibitor, partial curve] |  |
| Cc1ccc(C)n1-c1cccc(C(=O)Nc2ccccc2)c1 | inconclusive: 35.5 µM [inhibitor, single point] |  |
| CC(=O)Nc1nc2ccccc2n1CCOc1ccccc1 | inconclusive: 35.5 µM [inhibitor, single point] |  |
| O=C(c1cccc2cccc(O)c12)N1CCCCC1 | inconclusive: 22.4 µM [inhibitor, partial curve] |  |
| CCn1cc(C(=O)O)c(=O)c2cc(F)c(N3CCN(C(=S)NC(=O)c4ccccc4Cl)CC3)cc21 | inconclusive: 31.6 µM [inhibitor, partial curve] |  |
| CCOC(=O)c1[nH]c2ccc(OC)cc2c1NC(=O)OC | inconclusive: 20 µM [inhibitor, partial curve] |  |
| CC(=O)NNC(=O)c1nc(-c2ccccc2)c(C)o1 | inconclusive: 35.5 µM [inhibitor, single point] |  |
| CSc1sc(-c2ccnc(SCCS(C)(=O)=O)n2)c(-c2ccccc2)c1C#N | inconclusive: 25.1 µM [inhibitor, partial curve] |  |
| CC(C)(C)NC(=O)CSc1nc2ccccc2n1-c1ccccc1 |  | inactive: -2.26% |
| COc1ccc(OC)c(NC(=O)c2ccc(-c3cccs3)cc2)c1 | inconclusive: 35.5 µM [inhibitor, single point] |  |
| CC(C)(C)C1CCC(OC(=O)C[N+]2(C)CCCCC2)CC1 (configuration not stated) | inconclusive: 35.5 µM [inhibitor, single point] |  |
| O=C(Nc1nc2c(s1)CCCC2)c1cccs1 |  | inactive: 3.09% |
| COC(=O)c1ccccc1NC(=O)Nc1cccs1 | inconclusive: 39.8 µM [inhibitor, single point] |  |
| Cc1ccc(O)c(C2=NOC(O)(C(F)(F)C(F)F)C2)c1 (configuration not stated) |  | inactive: 3.44% |
| CC(C)OC(=O)CSc1nc(N)c(C#N)c(-c2ccco2)c1C#N | inconclusive: 31.6 µM [inhibitor, partial curve] |  |

| Compound | Potency | activity change, negative = inhibition |
| --- | --- | --- |
| Oc1ccccc1C1CC(c2cccs2)=NC(c2ccc(Cl)cc2)N1 (configuration not stated) | inconclusive: 39.8 µM [inhibitor, single point] |  |
| Cn1c(CO)cnc1SCC(=O)c1ccc(Cl)cc1 |  | inactive: 1.41% |
| O=c1[nH]nc(CNc2ccc(O)cc2)c2ccccc12 | inconclusive: 2.24 µM [inhibitor, partial curve] |  |
| NC1=CC(=O)c2cccc3cccc1c23 | inconclusive: 39.8 µM [inhibitor, single point] |  |
| COc1cc(/C=C/C(=O)N2CCN(CC(O)COc3ccccc3)CC2)cc(OC)c1OC (configuration not stated) | inconclusive: 31.6 µM [inhibitor, single point] |  |
| CN1C(=O)/C(=C/c2ccc(-c3ccccc3[N+](=O)[O-])o2)SC1=Nc1ccc(Cl)c(C(=O)O)c1 |  | inactive: 0.173% |
| Cc1sc2nc(-c3ccccc3)[nH]c(=O)c2c1-c1ccccc1 | inconclusive: 8.91 µM [inhibitor, single point] |  |
| Cc1n[nH]c(=S)n(NC(=O)/C=C/C(=O)Nn2c(=S)[nH]nc(C)c2=O)c1=O | inconclusive: 39.8 µM [inhibitor, single point] |  |
| Cc1cc(O)ccc1NC(=O)CCN1C(=O)c2ccc([N+](=O)[O-])cc2C1=O |  | inactive: -0.895% |
| COC(=O)CCC(=O)OC1(C)C(=O)C=C2C=C(C3CC3)N(CCCCO)C=C2C1=O (configuration not stated) | active: 20 µM | inactive: -29% [at 11.4 µM] |
| COc1ccc(/C=C/C(=O)NCc2nc3ccccc3[nH]2)cc1OC | inconclusive: 39.8 µM [inhibitor, single point] |  |
| O=C(CSc1c(Cl)cccc1Cl)NC1CCCc2ccccc21 (configuration not stated) |  | inactive: 2.58% |
| Cc1nc2c(sc3nc(N4CCOCC4)c4c(c32)CC(C)(C)OC4)c(-c2ccc(Cl)cc2)c1C(=O)O | inconclusive: 31.6 µM [inhibitor, partial curve] |  |
| Cc1ccc2cc(CNC(C)(C)C)c(=O)[nH]c2c1 | inconclusive: 25.1 µM [inhibitor, single point] |  |
| CC(C)(C)c1ccc(-c2nc3n(c(=O)c2C#N)CCS3)cc1 | inconclusive: 25.1 µM [inhibitor, single point] |  |
| Cc1cc(C)c2[nH]c(=O)c(CN(Cc3cccs3)C(=S)NCC3CCCO3)cc2c1 (configuration not stated) | inconclusive: 28.2 µM [inhibitor, single point] |  |
| Cc1ccnc(N=Cc2c(O)ccc3oc4c(c23)CCCC4)c1 | inconclusive: 3.16 µM [inhibitor, single point] |  |
| Cc1ccc(CNc2ccc(O)cc2)cc1 | active: 11.2 µM |  |
| C/C(=N\OCc1nc2ccccc2c(=O)n1/N=C/c1cc([N+](=O)[O-])ccc1O)c1ccccc1 | inconclusive: 39.8 µM [inhibitor, single point] |  |
| O=C(CNc1ccc(Oc2ccccc2)cc1)N1CCOCC1 | inconclusive: 39.8 µM [inhibitor, single point] |  |
| N#Cc1cc2c(nc1SCC(=O)O)CCCCC2 | inconclusive: 35.5 µM [inhibitor, single point] |  |
| Cc1c(C(=O)OCC2CCCO2)[nH]c2c1C(=O)CC(c1ccco1)C2 (configuration not stated) | inconclusive: 39.8 µM [inhibitor, single point] |  |
| COC(=O)C1=C(C(=O)OC)[C@@H]2N(C)c3ccc(OC)cc3[C@@]23C[C@@H](C(=O)OC)N(S(=O)(=O)c2ccc(C)cc2)C3=N1 |  | inactive: 9.59% [at 11.4 µM] |
